Data reported in article PMC4336329 (PLoS ONE, 2015).
Hit rate of the full screen: of about 310,000 compounds, about 14,000 (4.5%) showed an effect of 50% or more. Effects have a minus sign here. Some of the results follow.

Each compound was assayed against human ether-à-go-go-related gene (hERG) potassium channel (human, UniProt Q12809) (assay: primary screen, population patch clamp on CHO cells stably expressing hERG).
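Further: peak tail current of the secondary pulse compared with the same well before compound.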

Chain of human ether-à-go-go-related gene (hERG) potassium channel (Q12809 whole entry, looked up): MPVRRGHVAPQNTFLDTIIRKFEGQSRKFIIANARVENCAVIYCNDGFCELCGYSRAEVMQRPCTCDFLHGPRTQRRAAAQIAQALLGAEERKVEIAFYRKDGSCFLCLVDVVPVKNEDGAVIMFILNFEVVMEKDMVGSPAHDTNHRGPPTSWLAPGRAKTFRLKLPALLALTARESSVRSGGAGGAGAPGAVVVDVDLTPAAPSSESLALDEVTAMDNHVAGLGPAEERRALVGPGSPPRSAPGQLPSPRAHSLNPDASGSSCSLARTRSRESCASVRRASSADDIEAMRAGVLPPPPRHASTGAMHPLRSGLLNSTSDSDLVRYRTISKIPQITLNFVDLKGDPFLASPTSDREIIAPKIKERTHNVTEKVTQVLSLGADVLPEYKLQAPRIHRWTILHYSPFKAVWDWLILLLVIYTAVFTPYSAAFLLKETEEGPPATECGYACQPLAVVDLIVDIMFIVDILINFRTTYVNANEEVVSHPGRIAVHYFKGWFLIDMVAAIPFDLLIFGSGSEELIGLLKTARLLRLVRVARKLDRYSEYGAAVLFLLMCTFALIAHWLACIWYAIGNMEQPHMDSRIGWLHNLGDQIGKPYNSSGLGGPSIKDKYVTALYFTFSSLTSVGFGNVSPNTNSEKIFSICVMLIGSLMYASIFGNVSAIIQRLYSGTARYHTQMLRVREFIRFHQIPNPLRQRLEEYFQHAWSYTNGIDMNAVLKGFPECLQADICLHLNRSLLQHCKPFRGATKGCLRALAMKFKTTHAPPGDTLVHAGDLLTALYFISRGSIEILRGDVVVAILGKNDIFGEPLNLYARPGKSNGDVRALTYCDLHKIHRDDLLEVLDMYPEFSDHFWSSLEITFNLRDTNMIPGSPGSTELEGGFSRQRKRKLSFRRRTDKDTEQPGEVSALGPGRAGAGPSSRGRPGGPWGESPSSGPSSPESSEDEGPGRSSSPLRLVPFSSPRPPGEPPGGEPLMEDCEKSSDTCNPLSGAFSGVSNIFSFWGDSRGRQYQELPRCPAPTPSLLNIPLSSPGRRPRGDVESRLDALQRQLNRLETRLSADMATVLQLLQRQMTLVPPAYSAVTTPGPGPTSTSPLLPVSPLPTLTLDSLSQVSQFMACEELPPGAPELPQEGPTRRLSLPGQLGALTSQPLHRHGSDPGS

SMILES	hERG current change (%, negative = inhibition) at 10uM
O=C(O)C(O)(c1ccccc1)C1CCCC1 (stereo not shown)	19.2%
Cc1c(C(C)NC(=O)Nc2ccc(F)cc2F)cnn1C (stereo not shown)	15.2%
COCCNC(=O)CCc1nnc(Cc2ccc(-c3ccccc3)cc2)o1	14.5%
CCN(CC)S(=O)(=O)c1ccc(NC(=O)COC(=O)c2ccc(NC(=O)CC#N)cc2)cc1	20.5%
COC(=O)CSc1nc2c(cnn2-c2ccc(Cl)cc2)c(=O)[nH]1	18.2%
CC(=O)N1CCN(c2ccccc2NC(=O)c2ccco2)CC1	-38.9%
Cc1cc(Nc2ccc(Br)cc2F)n2ncnc2n1	-4.69%
Cc1ccc(Nc2nnc(SCc3cc(=O)n4cc(C)ccc4n3)s2)cc1	-36.6%
C=CCN1C(=O)c2ccc(C(=O)N(CC)CC(=O)Nc3ccc(OC)cc3)cc2C1=O	-20%
CN(C)CCNC(=O)c1c(NC(=O)c2ccccc2)sc2c1CCCC2	-25.9%
CC(C)C(NC(=O)c1ccc(Cl)cc1)C(=O)NC1=NCCS1 (stereo not shown)	-0.136%
COc1cc2c3c(c1OC)C1(C=CC(=NO)C=C1)CC3N(C(C)=O)CC2 (stereo not shown)	13.8%
O=C(CN1C(=O)CN=C(c2ccccc2)c2ccccc21)NCc1ccco1	9.96%
Cc1cc(C)cc(N(C(=O)c2ccccn2)C(C(=O)NC2CCCCC2)c2cccs2)c1 (stereo not shown)	-4.72%
CC(CC(F)(F)F)N1CCC(n2nccc2NC(=O)CCCc2ccccc2)CC1 (stereo not shown)	-28.7%
O=S(=O)(c1ccccc1)c1nc(-c2ccco2)oc1NCCCn1ccnc1	-65.6%
COc1ccc2cc(C(=O)C3CCCN(C(=O)CCc4ccccn4)C3)ccc2c1 (stereo not shown)	-45.2%
CC(=O)c1ccc(N2CCN(C(=O)CCS(=O)(=O)c3ccc(C)cc3)CC2)cc1	-41%
CCOC(=O)c1cc(C(C)=O)c(=O)[nH]c1C	12%
Brc1ccc(-n2cccc2/C=N/n2cnnc2)cc1	-25.1%
NC(=O)/C(=C/c1ccco1)NC(=O)/C=C/c1ccccc1	-5.56%
Cn1cnnc1SCc1ccccc1Br	6.03%
Cc1ccc(O)c(C(=O)c2coc(=N)c(C(=O)NC(C)C)c2)c1	-18.5%
CS(=O)(=O)CCC(C(=O)n1nnc2ccccc21)N1C(=O)c2ccccc2C1=O (stereo not shown)	-3.22%
O=C(COc1ccc2ccc(=O)oc2c1)Nc1c(Cl)cccc1C(F)(F)F	7.37%
CCN1C(=O)[C@@H]2[C@@H](c3ccc(-c4ccc(C(C)=O)cc4)c(OC)c3)N3CCCC[C@@]3(C(=O)OC)[C@@H]2C1=O.O=C(O)C(F)(F)F	6.13%
CCn1c(=O)c(-c2nc3ccccc3[nH]2)c(O)c2ccccc21	18.7%
N#Cc1nc(-c2ccccc2Cl)oc1N1CCN(C(=O)c2ccco2)CC1	-9.47%

SMILES	hERG current change (%, negative = inhibition) at 10uM
CCOC(=O)C1Cc2ccccc2C(=O)O1 (stereo not shown)	14.5%
O=C(CCSc1nnnn1-c1ccccc1)N1CCOCC1	-6.01%
COP(=O)(CC(=O)O)c1ccccc1 (stereo not shown)	-5.99%
Cc1cc(C)cc(NC(=O)N2CCCN(c3ncccc3[N+](=O)[O-])CC2)c1	-9.01%
Cc1cc(C(=O)COc2ccc(Cl)cc2Br)c(C)n1C	11.7%
CC(/C=N/NC(=O)NC1CCCCC1)=C\c1ccccc1	76.6%
CN(CC(=O)NCCc1ccc(S(N)(=O)=O)cc1)Cc1ccc(Cl)cc1Cl	-1.25%
O=C(O)COc1ccccc1/C=N/NC(=O)CSc1nc2ccccc2n1Cc1ccc(Cl)cc1	26.6%
C=CCn1c(SCC(=O)Nc2ccc(OC)cc2)nnc1-c1cnccn1	-23.1%
FC(F)(F)c1ccc2c(c1)[nH]c(=S)n2C1CC1	13.9%
Cc1cccc(NC(=O)c2sc3nc(-c4ccccc4)cn3c2C)n1	-6.16%
NC(=O)[C@@H]1CC2(CC(c3cccc(NC(=O)COc4ccc(Cl)cc4)c3)=NO2)CN1C(=O)c1ccccc1 (stereo partly shown)	-22.4%
CC1(C)NC(=O)N(CCCCOc2ccc(Cl)cc2C=O)C1=O	-11.8%
Cc1c(NC(=O)Nc2ccc([N+](=O)[O-])cc2)c(=O)n(-c2ccccc2)n1C	6.68%
O=C(O)CNC(=O)c1ccc(NC(=O)/C(=C/c2cccc([N+](=O)[O-])c2)NC(=O)c2ccco2)cc1	18.9%
CC1CC(=O)Nc2ccccc2S1(=O)=O (stereo not shown)	7.89%
O=C(Nc1ccc(F)cc1)C1CCN(S(=O)(=O)c2cccs2)CC1	-24.4%
CC1(C)NC(=O)N(CNc2cc(Cl)ccc2Cl)C1=O	1.46%
COc1cc(/C=C2\SC(=S)N(CCCCC(=O)O)C2=O)ccc1OS(=O)(=O)c1ccc(C)cc1	1.93%
CCCn1c(N)c(C(=O)CSc2nc3ccccc3c(=O)n2-c2ccc(OC)cc2)c(=O)[nH]c1=O	6.68%
Cc1ccc(C)c(OCCC(=O)Nc2cccc(S(=O)(=O)NC3=NCCCCC3)c2)c1	-15.1%
CCn1c2ccccc2c2cc(C3C(C#N)=C(C)NC(C)=C3C#N)ccc21	2.06%
CC1Cc2ccccc2N1C(=O)COC(=O)CNC(=O)c1ccc(Br)o1 (stereo not shown)	-60.2%
CSc1nc2cc(C)nn2c(-c2ccccc2Cl)c1C#N	11.9%
O=C(O)CNC(=O)C(CS)Cc1ccccc1 (stereo not shown)	17.1%
COc1ccc(-c2nnn(CC(=O)NCc3ccc4c(c3)OCO4)n2)cc1OC	14.9%
NCCSc1c(-c2ccccc2)[nH]c2ccccc12	-12.1%
